The source gives no read counts; variants with many changes may rest on few reads.
B1: LINE1-full (parent)
chain: UACGUAGGUGGUUUUCCCCUGAUAGUGCUAAGGGGGCCUGGAAGUUUGGACUGGGCAGAGCUCAACACAGCGUGGCAAAGUGGCUGUGGCUAGACUGCCUCUCUGGAUUCCUCGUCACUCAGCAGGGCAUCUCUGAGAGAAAUGCC

Variants of: B1
Assay: self-cleavage, relative activity (ratio to wild type); higher = more cleavage; in vitro, sequencing; the parent is a self-cleaving ribozyme

Variant | self-cleavage
UACGUAGGUGGUCUUCCCCUGAUAGUGCUAAGGGGGCCUGGAAGGUUGGACUGGGCAGAGCUCAACACAGCGUGGCAAAGUGGCUGUGGCUAGACAGCCUCUCUGGAUUCCUCGUCACUCAGCAGGGCAUCUCUGAGAGAAAUGCC [U13C U45G U96A] | 0.08
UACGUAGGUGGUCUUCCCCUGAUAGUGCUAAGGGGGCCUGGAAGGUUGGACUGGGCAGAGCUCAACACAGCGUGGCAAAGUGGCUGUGGCUAGACUGCCUCUCAGGACUCCUCGUCACUCAGCAGGGCAUCUCUGAGAGAAGUGCC [U13C U45G U104A U108C A142G] | 0.98
UACGUAGGUGGUCUUCCCCUGAUAGUGCUAAGGGGGCCUGGAAGAUUGGACUGGGCAGAGCUCAACACAGCGUGGCAAAGUGGCUGAGGCUAGACUGCCUCUCUGGAUUCCUCGUCACUCAGCAGGGCAUCUCUGAGAGAAAUGCC [U13C U45A U87A] | 0.13
UACGUAGGUGGUCUUCCCCUGAUAGUGCUAAGGGGGCCUGGAAGGUUGGACUGGGCAGAGCUCAACACAGCGUGGCAAAGCGGCUGUGGCUAGACUGCCUCUCUGGAUGCCUCGUCACUCAGCAGGGCAUCUCUGAGAGAGAUGCC [U13C U45G U81C U109G A141G] | 0
UACGUAGGUGGUCUUCCCCUGAUAGUGCUAAGGGGGCCAGGAAGUUUGGACUGGGCAGAGCUCAACACAGCGUGGCAAAGUGGCUGUGGCUAGACUGCCUCUCUGGAUUCCUCGUCACUCAGCAGGGCAUCUCUGAGAGAAACGCC [U13C U39A U143C] | 0.92
UACGUAGGUGGUCUUCCCCUGAUAGUGCUAAGGGGGCCUGGAAGUUCGGACGGGGCAGAGCUCAACACAGCGUGGCAAAGUGGCUGUGGCUAGACUGCCUCUCUGGAUUCCUCGUCACUCAGCAGGGCAUCUCUGAGAGAAAUGCC [U13C U47C U52G] | 1.06
UACGUAGGUGGUCUUCCCCUGAUAGUGCUAAGGGGGCCUGGAAGUUCGGACUGGGCAGAGCUCAACACAGCGUGGCAAAGUGGCUGUGGCUAGACUGGCUCUCUGGAUUCCUCGUCACUCAGCAGGGCAUCUCUGAGAGAAAUGCC [U13C U47C C98G] | 0.35
UACGUAGGUGGUCUUCCCCUGAUAGUGCUAAGGGGGCCCGGAAGUCUGGACUGGGCAGAGCUCAACACAGCGUGGCAAAGUGGCUGUGGCUAGACUGCCUCUCUGGAUUCCUCGUCACUCAGCAGGGCAUCUCUGAGAGAAAUGCC [U13C U39C U46C] | 0.27
UACGUAGGUGGUCUUCCCCUGAUAGUGCUAAGGGGGCCUGGAAGCUUGGACUGGGCUGAGCUCAACACAGCGUGGCAAAGUGGCUGUGGCUAGACUGCCUCUCUGGAUUCCUCGUCACUCAGCAGGGCAUCUCUGAGAGAAGUGCC [U13C U45C A57U A142G] | 0
UACGUAGGUGGUCUUCCCCUGAUAGUGCUAAGGGGGCCUGGAAGCUUGGACUGGGCAGAGCUCAACACAGCGUGGCAAAGUGGCCGUGGCUAGACUGCCUCUCUGGAUUCCUCGUCACUCAGCAGGGCAUCUCUGAGAGAAAUGCC [U13C U45C U85C] | 0.88
UACGUAGGUGGUCUUCCCCUGAUAGUGCUAAGGGGGCCUGGAAGUCUGGACUGGGCAGAGCUCAACACAGCGUGGCAAAGUGGCUGUGGCUAGACUGCCUCUCCGGAUUCCUCGUCACUCAGCAGGGCAUCUCUGAGAGAAAUGCC [U13C U46C U104C] | 2.3
UACGUAGGUGGUCUUCCCCUGAUAGUGCUAAGGGGGCCCGGAAGUUUGGACUGGGCAGAGCUCAACACAGCGUGGCGAAGUGGCUGAGGCUAGACUGCCUCUCUGGAUCCCUCGUCACUCAGCAGGGCAUCUCUGAGAGAAAUGCC [U13C U39C A77G U87A U109C] | 0
UACGUAGGUGGUCUUCCCCUGAUAGUGCUAAGGGGGCCUGGAAGUUCGGACUGGGCAGAGCUCAACACAGCGAGGCAAAGUGGCUGUGGCUAGACUGCCUCUCUGGAUCUCUCGUCACUAAGCAGGGCAUCUCUGGGAGAAAUGCC [U13C U47C U73A U109C C110U C120A A136G] | 1.47
UACGUAGGUGGUCUUCCCCUGAUAGUGCUAAGGGGGCCUGGAAGCUUGGACUGGGCAGAGCUCAACACAGCGUGGCAAAAUGGCCGUGGCUAGACUGCCUCUCUGGAUUCCUCGUCACUCAGCAGGGCAUCUCUGAGAGAAAUGCC [U13C U45C G80A U85C] | 0.34
UACGUAGGUGGUCUUCCCCUGAUAGUGCUAAGGGGGCCUGGAAGUCAGGACUGGGCAGAGCUCAACACAGCGUGGCAAAGUGGCUGUGGCUAGACUGCCUCUCUGGAUUCCUCGUCACACAGCAGGGCAUCCCUGAGAGAAAUGCC [U13C U46C U47A U119A U132C] | 1.93
UACGUAGGUGGUCUUCCCCUGAUAGUGCUAAGGGGGCCUGGAAGUUUGGACAGGGCAGAGCUCAACACAGCGUGGCAAAGUGGCUGUGGCUAGACUGCCUCUCUGGAUUCUUCGUCACUCAGCAGGGCAUCUCUGAGAGAAAUGCC [U13C U52A C111U] | 1.08
UACGUAGGUGGUCUUCCCCUGAUAGUGCUAAGGGGGCCUGGAAGAUUGGACUGGGCAGAGCCCAACACAGCGUGGCAAAGUGGCUGUGGCUAGACUGCCUCUCUGGAUUCCCCGUCACUCAGCAGGGCAUCUCUGAGAGAAAUGCC [U13C U45A U62C U112C] | 0
UACGUAGGUGGUCUUCCCCUGAUAGUGCUAAGGGGGCCUGGAAGUCUGGACUGGGCAGAGCUCAACACAGCGUGGCAGAGUGGCUGUGGCUAGACUGCCUCUCUGGAUUCCUCGUCACUCAGCUGGGCAUCUCUGAGAGAAAUGCC [U13C U46C A78G A124U] | 0.57
UACGUAGGUGGUCUUCCCCUGAUAGUGCUAAGGGGGCCUGGAAGCUUGGACUGGGCAGAGCUCAACACAGCGUGGCAAAGUGGCUGUGGCUAGACAGCCUCUCUGGAUUCCUCGUCACUCAGCAGGGCAUCUCUGAGAGAAAUGCC [U13C U45C U96A] | 0
UACGUAGGUGGUCUUCCCCUGAUAGUGCUAAGGGGGCCUGGAAGUUUGGACCGGGCAGAGCUCAACACAGCGUGGCAAAGUGGCCGUGGCUAGACUGCCUCUCUGGAUUCCUCGUCACUCAGCAGGGCAUCUCUGAGAGAAAUGCC [U13C U52C U85C] | 0.5

Variant | self-cleavage
UACGUAGGUGGUCUUCCCCUGAUAGUGCUAAGGGGGCCUGGAAGUCUGGACUGGGCAGAGCUCAUCACAGCGUGGCAAAGUGGCUGUGGCUAGACUGCCUCUCUGGAUUCCUCGUCACUCAGCAGGGCAUCUCUGAGAGAAAUGCC [U13C U46C A65U] | 0.24
UACGUAGGUGGUCUUCCCCUGAUAGUGCUAAGGGGGCCUGGAAGUCAGGACUGGGCAGAGCUCAACACAGCGUGGCAAAGUGGCUGUGGCUAGACUGCCUCUCUGGAUUCCUCGUCACUCAGCAGGGCAUCUCUGAGAGAAAUGCC [U13C U46C U47A] | 1.49
UACGUAGGUGGUCUUCCCCUGAUAGUGCUAAGGGGGCCUGGAAGGUUGGACUGGGCAGAGCUCAACACAGCGUGGCAAAGUGGCUGUGGCUAGACCGCCUCUCUGGAUUCCUCGUCACUCAGCAGGGCAUCUCCGAGAGAAAUGCC [U13C U45G U96C U134C] | 0
UACGUAGGUGGUCUUCCCCUGAUAGUGCUAAGGGGGCCUGGAAGUCUGGACUGGGCAGAGCUCAACACAGCGCGGCGAAGUGGCUGUGGCUAGACUGCCUCUCUGGAUUCCUCGUCACUCAGCAGGGCAUCUCUGAGAGAAAUGCC [U13C U46C U73C A77G] | 1.67
UACGUAGGUGGUCUUCCCCUGAUAGUGCUAAGGGGGCCUGGAAGUUUGGACAGGGCAGAGCUCAACACAGCGUGGCAAAGUGGCUGUGGCUAGACAGCCUCUCUGGAUUCCUCGUCACUCAGCAGGGCACCUCUGGGAGGAAUGCC [U13C U52A U96A U130C A136G A140G] | 0.27
UACGUAGGUGGUCUUCCCCUGAUAGUGCUAAGGGGGCCUGGAAGUUCAGACUGGGCAGAGCUCAACACAGCGUGGCAAAGUGGCUGUGGCUAGACUGCCUCUCUGGAUUCCUCGUCACUCAGCAGGGCAUCUCUGAGAGAAAUGCC [U13C U47C G48A] | 1.69
UACGUAGGUGGUCUUCCCCUGAUAGUGCUAAGGGGGCCCGGAAGUUUGGACUGGGCAGAGCUCAACACAGCGUGGCAAAGUGGCUGUGGCUAGACUGCCUCUCUGGAUUCCUCGUCACUCAGCAGGGCAUCACUGAGAGAAAUGCC [U13C U39C U132A] | 1.38
UACGUAGGUGGUCUUCCCCUGAUAGUGCUAAGGGGGCCUGGAAGUUCGGACUGGGCAGAGCUCAACACAGCGUGGCAAAGUGGCUGUGGCUAGACUGCCUCUCUGGACUCCUCGUCACUCAGCAGGGCAUCUCUGAGAGAAAUGCC [U13C U47C U108C] | 0.48
UACGUAGGUGGUCUUCCCCUGAUAGUGCUAAGGGGGCCUGGAAGUUUGGACCGGGCAGAGCUCAACACAGCGGGGCAAAGUGGCUGUGGCUAGACUGCCUCUCUGGAUUCCUCGUCACUCAGCAGGGCAUCUCUGAGAGAAAUGCC [U13C U52C U73G] | 1.31
UACGUAGGUGGUCUUCCCCUGAUAGUGCUAAGGGGGCCUGGAAGUUGGGACUGGGCAGAGCUCAACACAGCGUGGCAAAGUGGCUGUGGCUAGACUGCCUCUCUGGAUUCCUCGUCACUCAGCAGGGCAUCUCUGAGAGUAAUGCC [U13C U47G A140U] | 0
UACGUAGGUGGUCUUCCCCUGAUAGUGCUAAGGGGGCCCGGAAGUUUGGACUGGGCAGAGCUCAACACAGCGUGGCAAAGUGGCUGUGGCUAGACUGCCUCUCUGGAUUCCUCGUCACUCAGCAGGGCAUCUCUGAGAGAAAAGCC [U13C U39C U143A] | 0.83
UACGUAGGUGGUCUUCCCCUGAUAGUGCUAAGGGGGCCAGGAAGUUUGGACUGGGCAGAGCUCAACACAGCGUGGCAAAGUGGCUGUGGCUAGACUGCCUCUCUGGAUCCCUCGUCACUCAGCAGGGCAUCUCCGAGAGAAAUGCC [U13C U39A U109C U134C] | 1.26
UACGUAGGUGGUCUUCCCCUGAUAGUGCUAAGGGGGCCUGGAAGUUUGGACCGGGCAGAGCUCAACACAGCGUGGCAAAGUGGCUGUGGCUAGACUGCCUCUCUGGAUUCCUCGUCACUCGGCAGGGCGUCUCUGAGAGAAAUGCC [U13C U52C A121G A129G] | 0
UACGUAGGUGGUCUUCCCCUGAUAGUGCUAAGGGGGCCUGGAAGCUUGGACUGGGCAGAGCUCAACACAGCGUGGCAAGGUGGCCGUGGCUAGACUGCCUCUCUGGAUUCCUCGUCACUCAGCAGGGCAUCUCUGAGAGAAAUGCC [U13C U45C A79G U85C] | 0.42
UACGUAGGUGGUCUUCCCCUGAUAGUGCUAAGGGGGCCUGGAAGGUUGGACUGGGCAGAGCUCAACACAGCGUGGCAAAGUGGCUGUGGCUAGACUGCCUCUCUGGAUUCCUCGUCACUCAGCAGGGCAUCUCCGAGAGAAAUGCC [U13C U45G U134C] | 0.63
UACGUAGGUGGUCUUCCCCUGAUAGUGCUAAGGGGGCCUGGAAGAUUGGACUGGGCAGAGCUCAGCACAGCGUGGCAAAGUGGCUGUGGCUAGACUGCCUCUCUGGAUUCCUCGUCACUCAGCAGGGCAUCUCUGAGAGAAAUGCC [U13C U45A A65G] | 0
UACGUAGGUGGUCUUCCCCUGAUAGUGCUAAGGGGGCCUGGAAGUCUGGACUGGGCAGAGCUCAACACAGCGUGGCAAAGUGGCUGCGGCUAGACUGCCUCUCUGGAUUCCUCGUCACUCAGCAGGGCAUCUCUGAGUGAAAUGCC [U13C U46C U87C A138U] | 0.17
UACGUAGGUGGUCUUCCCCUGAUAGUGCUAAGGGGGCCUGGAAGUUUGGACAGGGCAGAGCUCAACACAGCGUGGCAAAGUGGCUGUGGCUAGACUGCCUCUCUGGAUUCCUCGUCACUCAGCUGGGCAUCUCUGAGAGAAAUGCC [U13C U52A A124U] | 1.4
UACGUAGGUGGUCUUCCCCUGAUAGUGCUAAGGGGGCCUGGAAGUUAGGACUGGGCAGAGCUCAACACAGCGUGGCAAAGUGGCUGUGGCUAGACUGCCUCUCUGGAUUCCUCGUCACUCAGCAGGGCAUCUCUGAGAGAAGUGCC [U13C U47A A142G] | 0.95

From the RNAGym collection of RNA variant scans (doi:10.7554/elife.90254)
